# Measurements published in the supplement of paper PMC10126150.
# Values marked as one replicate rest on one cluster of the flow cell; about a third of the high ones do not repeat.
# Tested on: ATP
# Assay: switch fluorescence ratio, 500 uM ATP over buffer (Cy3 cluster intensity, sum of 5 cycles each) (fold (ratio)); higher = stronger signal-on switching upon ATP binding; sequences stand for … in TCGTCGGCAGCGTCAGATGTGTATAAGAGACAGTTTTTTTTTTTTTTTTTTTTTTTTT…TC
# Settings: aptamer strand: ATP DNA aptamer (quencher-CACCTGGGGGAGTATTGCGGAGGAAGG + anchor), 100 nM annealed; ATP concentration: 500 uM; one replicate
# How it was run: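 For every switch-domain sequence, the fluorescence ratio is the mean of per-cluster values, each being summed target-cycle Cy3 intensity over summed buffer-cycle Cy3 intensity. Clusters outside 100-1000 RFU were excluded. On a modified Illumina MiSeq flow-cell, the Cy3-labelled switching-strand clusters were annealed to 100 nM quencher-labelled ATP aptamer, imaged in selection buffer and then after 15 min with 500 uM ATP at 22 °C. Five such cycles were run, with NaOH stripping and re-annealing between them.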
# 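Further: ATP exposure 15 min at 22 °C before imaging.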
row,Sequence,switch fluorescence ratio
1,CTGTCTAAGT,1.03
2,CTGTCTGGT,0.961
3,CTGTCTGTTT,0.951
4,CTGTGAGCT,1.06
5,CTGTGAGGTG,1.04
6,CTGTGCATAG,1.31
7,CTGTGCGGCC,1.05
8,CTGTGCTAAA,1.04
9,CTGTGTTACG,0.967
10,CTGTTAAAGA,1.03
11,CTGTTAGAAT,0.988
12,CTGTTATGTC,0.987
13,CTGTTATTAA,0.983
14,CTGTTGCAGG,0.971
15,CTGTTGCGAT,1.4
16,CTGTTGTTAT,0.959
17,CTGTTTAAGA,0.963
18,CTGTTTTCCG,1.02
19,CTGTTTTTGG,1.01
20,CTTAAAGCCT,1.2
21,CTTAACCGCA,1.95
22,CTTAACGGAG,1.03
23,CTTAAGGTTT,1.01
24,CTTAATTGTG,1.02
25,CTTACAGGTG,1.79

row,Sequence,switch fluorescence ratio
1,CTTACAGTTG,0.998
2,CTTACATACA,1.38
3,CTTACCAC,1.08
4,CTTACCAGTC,1.05
5,CTTACCCCTT,1.06
6,CTTACGCGTG,1.03
7,CTTACTATCG,1.05
8,CTTAGACGCG,0.999
9,CTTAGACTTA,0.991
10,CTTAGACTTG,1.03
11,CTTAGATTAG,1.02
12,CTTAGCATAT,1.46
13,CTTAGCGTCC,1
14,CTTAGCTTAG,1.01
15,CTTAGTGAGG,0.996
16,CTTATACGAC,1.29
17,CTTATCCACG,1.05
18,CTTATCGTTA,1
19,CTTATCTTA,1.02
20,CTTATGGTCG,1.02
21,CTTATTAGAG,1.07
22,CTTATTAGCA,1.01
23,CTTCAATACA,1.19
24,CTTCAATCGG,0.981
25,CTTCACCGCG,1.32

row,Sequence,switch fluorescence ratio
1,CTTCACGCTG,1.07
2,CTTCAGTGAC,1.06
3,CTTCATCCAG,1.94
4,CTTCATGGGG,1.01
5,CTTCCGTCCA,2.3
6,CTTCCTGCCG,1.23
7,CTTCCTTTTG,1.04
8,CTTCGACTCG,1.01
9,CTTCGCGATA,1.07
10,CTTCGGAAT,3.92
11,CTTCGGTTCA,1.03
12,CTTCGTTCGT,1.14
13,CTTCTACACC,1.07
14,CTTCTATAAG,0.99
15,CTTCTATAAT,1.05
16,CTTCTGCGTT,1.03
17,CTTCTGTCCA,1.03
18,CTTGAACGCG,1.02
19,CTTGACACTC,1.02
20,CTTGAGATA,0.97
21,CTTGAGGATA,0.998
22,CTTGAGGTTT,0.984
23,CTTGAGTAAT,1.03
24,CTTGAGTCGG,1
25,CTTGATGGAC,1.04

row,Sequence,switch fluorescence ratio
1,CTTGCAGCGT,0.996
2,CTTGCAGGAT,1.02
3,CTTGCCCGGG,1.07
4,CTTGCGAGGA,1.01
5,CTTGGACTAG,0.994
6,CTTGGATCTG,0.987
7,CTTGGCCTG,0.941
8,CTTGGGATGC,1.06
9,CTTGGTATAC,1.38
10,CTTGGTGAA,0.99
11,CTTGGTGCAT,1.07
12,CTTGGTTAGA,1
13,CTTGGTTATG,0.995
14,CTTGTAACCA,0.979
15,CTTGTAGGAC,0.996
16,CTTGTGCCCG,1.11
17,CTTGTGCGT,1.03
18,CTTGTGGTTG,0.978
19,CTTGTTGGTA,1.03
20,CTTGTTGTGG,0.96
21,CTTTAAAG,0.99
22,CTTTAGGGGT,0.99
23,CTTTATGCCA,0.96
24,CTTTCCAAAC,1.41
25,CTTTCGAGGC,1.3

row,Sequence,switch fluorescence ratio
1,CTTTCTGTCT,0.995
2,CTTTGAGTCA,0.981
3,CTTTGGCATG,1.03
4,CTTTGGCTAC,2.08
5,CTTTGGCTCG,1.03
6,CTTTGGGCTT,1.02
7,CTTTGGTTAC,1.07
8,CTTTGTCCGC,2.73
9,CTTTGTTAGC,1.37
10,CTTTGTTCAG,0.987
11,CTTTTAAGCC,1.01
12,CTTTTCAGCT,1
13,CTTTTTACGA,1.01
14,CTTTTTCGCA,1.08
15,CTTTTTGAGA,1.02
16,CTTTTTGCTC,0.951
17,CTTTTTTGTC,1.03
18,GAAAAAAACC,0.992
19,GAAAAACCTA,0.988
20,GAAAACGGAT,0.994
21,GAAAACGGG,1.04
22,GAAAACTAGA,0.911
23,GAAAAGCGAT,1.01
24,GAAAAGCGTC,1
25,GAAAAGTCAG,1.06

row,Sequence,switch fluorescence ratio
1,GAAAATGACA,1.01
2,GAAAATGAGA,0.992
3,GAAAATTAAT,1.04
4,GAAACACTGT,0.982
5,GAAACCGCAA,3.68
6,GAAACGTCTT,0.994
7,GAAACTGAAG,0.991
8,GAAAGATTTA,0.99
9,GAAAGCATGT,0.99
10,GAAAGCTTTT,1.01
11,GAAAGGATAG,1.05
12,GAAATAGAGA,0.999
13,GAAATAGCAA,1.46
14,GAAATAGTCA,1.02
15,GAAATCAGAC,1
16,GAAATGCGAA,1.06
17,GAAATGCGCT,0.996
18,GAACACAAGT,1.07
19,GAACACGCGA,1.31
20,GAACAGAATC,0.992
21,GAACATAGCA,1.07
22,GAACATGCTA,1.02
23,GAACCCGTCC,1.68
24,GAACCGAATT,1.05
25,GAACCGAGAT,1.02

row,Sequence,switch fluorescence ratio
1,GAACGAAGTA,0.971
2,GAACGAGGTG,1.02
3,GAACGGAGGA,1.02
4,GAACGTCGAA,0.974
5,GAACGTTTTT,0.991
6,GAACTCAAGT,0.946
7,GAACTCAGTA,1.01
8,GAACTCTCGA,1.02
9,GAACTGAGTA,1
10,GAAGAAATTC,1.1
11,GAAGAAGCTT,1.01
12,GAAGACTTGG,1.04
13,GAAGAGAGAG,0.949
14,GAAGATGATG,0.94
15,GAAGATGCAG,0.913
16,GAAGATGTGT,1.01
17,GAAGCACAGC,1.04
18,GAAGCCAGAA,1.03
19,GAAGCCTCTA,1.03
20,GAAGCGTTTT,0.97
21,GAAGCTCAGG,1.13
22,GAAGCTTCGT,1.02
23,GAAGGAAAGC,1.01
24,GAAGGAACGG,0.975
25,GAAGGATTGA,0.986

row,Sequence,switch fluorescence ratio
1,GAAGGCTGGG,1.01
2,GAAGGGATCG,1.01
3,GAAGGTCTGC,0.996
4,GAAGTCGGAG,0.966
5,GAAGTCTCT,1.01
6,GAAGTCTCTT,0.977
7,GAAGTTATGG,0.943
8,GAAGTTCCAG,0.99
9,GAAGTTCGTC,0.893
10,GAAGTTGCTT,0.982
11,GAAGTTTGCG,0.968
12,GAATAAGCCT,1.19
13,GAATAGAAGT,0.969
14,GAATAGCCTT,1.02
15,GAATAGCTGC,1.03
16,GAATAGGCTT,0.993
17,GAATATAATT,1.03
18,GAATCAGAAT,1.01
19,GAATCCATGG,0.997
20,GAATCCCCCA,1.11
21,GAATCGAATC,1
22,GAATCGATGT,1.05
23,GAATCGCGCG,0.968
24,GAATCGTCTA,0.991
25,GAATCTGAAC,1.08
